This is an account of results in the supplement of paper PMC11417369.

± gives the standard deviation of the averaged measurements. The list shows a part of the results.

The assay has as its system PfAP2-EXP AP2 domain (GST-tagged). Kind of assay: gcPBM binding intensity (ln(normalized median fluorescence intensity)); higher = stronger DNA binding. In a few lines:
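An Agilent 4 × 180k array of primer-extended double-stranded 36-bp intergenic genomic probes, with negative controls, was incubated for 1 h with GST-tagged P. falciparum DNA-binding domains expressed in E. coli. Alexa488 anti-GST antibody detected bound protein, scanned at 488 nm. Binding intensity is the highest Masliner-normalised natural-log median intensity across replicate spots of either probe orientation.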
Consider “AAAAATAAAACAATTACACACATAACTTTATTTTTA [CACACA_site6563]”, for which the “gcPBM binding intensity (ln)” value came out at 8.39 ± 0.45.
The same measure for “GAACTCATTTAATATTGTACATTCTGATATTTTTTA [XGTACX_site5995]”: 8.68 ± 0.45.
The same measure for “ACCACCATATAACATACATGCATCTTTTTTCCCTTC [TGCATGCA_site583]”: 9.33 ± 0.33; for “TATATACATACATATACACACATATATATATATATA [CACACA_site401]”: 10.1 ± 0.28; for “TCATTGTTTAATATGTGTCCTCAAAATTTGTTATAT [XGTACX_site677]”: 8.71 ± 0.29.
The same measure for “GTATAAAATATTGATTGTACTTTATTCATTTTTTTT [XGTACX_site2520]”: 8.37 ± 0.3; for “TCATATTCCAAGTGTACACATAAATCCCTAATAACA [CACACA_site5167]”: 8.9 ± 0.74; for “TCTTGTTAATATATTAAATATATCTATAAATATATA [XGTACX_negctrl_site486]”: 8.37 ± 0.35.
For “TCTTAAATATATAAATTGAAAAATATAAAAGTAATA [CACACA_negctrl_site1558]”, the “gcPBM binding intensity (ln)” value came to 8.37 ± 0.42.
The same measure for “AAAACAATATACTGTAGTACTGATGATATATATATA [XGTACX_site7798]”: 9.61 ± 0.3; for “ACAATATAGATTAAAAGTACAAATAGTAAATTATAT [XGTACX_site3165]”: 8.64 ± 0.26; for “ATAAAAAAAAATAGCACACATAAATATATTATATAT [CACACA_site767]”: 8.66 ± 0.35.
“CTACTTATAAATAGAACACACATAAGTGTATTTGTA [CACACA_site3759]”: the “gcPBM binding intensity (ln)” value was found to be 8.23 ± 0.5.
“AATCATCTCATAAAAATTAATTAGTGTATGTCTTTT [TGCATGCA_negctrl_site416]”: the “gcPBM binding intensity (ln)” value came out at 8.32 ± 0.35.
The same measure for “TAATTATGTATGAACTGTACAGGTTATTTTATTTTA [XGTACX_site5204]”: 8.38 ± 0.42; for “TAAAATTTAAATTATACACACTTAAGTAACATCATC [CACACA_site4450]”: 8.88 ± 0.56; for “AAAAAATACCTCTATAGTACATATATATAATATTTA [XGTACX_site7222]”: 8.16 ± 0.29.
The same measure for “AAAAAAAATTTATTTGCATGCAAAAAAAAAAAAAAA [TGCATGCA_site67]”: 9.5 ± 0.23; for “AAGCCCATTATTAAATGTACAAAATTTTATAAACTA [XGTACX_site7800]”: 8.46 ± 0.5.
With “TATAGGTATTTATATACACACATATTCTTTTTACAC [CACACA_site6686]”, the “gcPBM binding intensity (ln)” value is 8.47 ± 0.33.
The same measure for “CAGTGCCAAATTAGCACACACATATATACATGAATT [CACACA_site2814]”: 8.54 ± 0.45; for “TAAAACATATATACAAGTACACAAAGGATATATATA [XGTACX_site3710]”: 8.79 ± 0.41.
With “GTATATATGTATATATGTACATATATATAATATATT [XGTACX_site56]”, the “gcPBM binding intensity (ln)” value was 8.5 ± 0.16.
In the case of “CACAGTGATATAAAAACACACATGAATTATAATTTC [CACACA_site1667]”, the “gcPBM binding intensity (ln)” value came out at 8.34 ± 0.49.
The same measure for ATGTAGATAAAACGTGTGCACATGTTTTTTGTTATT: 8.77 ± 0.32; for “TTTTGTTATGGTTTGATGCACTTATATATAAATATT [GTGCAC_site9705]”: 9.01 ± 0.21.
The same measure for “ATATATATATATATATGTACTTATTACCAATGTTAG [XGTACX_site1896]”: 10.1 ± 0.33.
The same measure for “ACCCATTTAACAAAATGTACATTATTATAATTACTT [XGTACX_site7105]”: 8.8 ± 0.48; for “AAATTTTAAATAGTATGTACGTATGAAATATATATG [XGTACX_site7511]”: 9.03 ± 0.38; for “ATTTAAATACAAAATTGTACTTTTCTATATTTAACA [XGTACX_site6146]”: 8.44 ± 0.41.
As to “AAAATTTTACAGAAGGTGCGTATATTTTCCTGCTTA [GTGCAC_site9643]”, the “gcPBM binding intensity (ln)” value worked out at 8.61 ± 0.27.
The same measure for “TTTGGAAAAAAATTATTTAAACGATATGAATTGATG [XGTACX_negctrl_site506]”: 8.44 ± 0.49; for “CTTACCAAAAGACACACACACACAAGATATATAAAT [CACACA_site6964]”: 8.77 ± 0.56.
For the sequence “AAATTAAAATAAAAATGTACATATAAAGACACAACT [XGTACX_site3132]”, the “gcPBM binding intensity (ln)” value came to 9.19 ± 0.45.
Then “TACAATATTTTGAGACGTACATATATACATTTACAT [XGTACX_site5880]”, with 8.48 ± 0.31.
For the sequence “TGTAAGTCGTTATAAGCACACACATAAATAAAAATA [CACACA_site8448]”, the “gcPBM binding intensity (ln)” value was 8.72 ± 0.56.
The same measure for “TATATATATATACCAACACACATACAGATATATATA [CACACA_site5060]”: 9.91 ± 0.085; for “TTTATATACAAAAATGCACACGAAAAGTAATATATA [CACACA_site9387]”: 8.88 ± 0.4.
Then “TGAACTTACTTGGACATACACACATATATATATATA [CACACA_site2977]”, with 10.2 ± 0.27; and “TTTTTTTTTTTTTTTTAACACACATATATATATTTT [CACACA_site8585]”, with 8.3 ± 0.49.
Then “ATAAAAGATTTATACATACACACATATTATATTCAC [CACACA_site3714]”, with 8.47 ± 0.44; and “ATATATATGTATATAACATGCAACATTTAATAATAA [TGCATGCA_site1018]”, with 8.73 ± 0.27.
For “TCATAGCTAGGATAACGTACAGAAAAGTGAAAAATT [XGTACX_site3322]”, the “gcPBM binding intensity (ln)” value stood at 9.07 ± 0.48.
The same measure for “ACACATGTATTTGGTGCATGTTGTTAAAAAAATATT [TGCATGCA_site795]”: 8.71 ± 0.4; for “ATTCTAGTAATATATGTATATTTATATATGTATGTG [XGTACX_negctrl_site419]”: 8.12 ± 0.35.
Then “TTTTTTTTTTGTTGTTGTACTCTTATATTTTTATAT [XGTACX_site6178]”, with 8.77 ± 0.43.
As to “GATCTATTGAGTGATACATGCAGGAAAATTAAAAAC [TGCATGCA_site729]”, the “gcPBM binding intensity (ln)” value stood at 9.51 ± 0.27.
The same measure for “AAAAAGAAAAAAGAAAGTACAAATATACACATTTTT [XGTACX_site3343]”: 8.28 ± 0.47; for “TTTTTATTATAAGGTCGTACAATTGTAATTATTGTA [XGTACX_site1413]”: 8.48 ± 0.35.
“TATGTATGTATGTATGTATGCATGTCTAACACCTAA [TGCATGCA_site360]”: the “gcPBM binding intensity (ln)” value was 8.73 ± 0.29.
Regarding “TTTTTTTTTTTATGCTCACACATTAATTTTTATACA [CACACA_site4527]”, the “gcPBM binding intensity (ln)” value was 8.63 ± 0.42.
Then “AAAAAACACGGACACACACACATATACATACATACA [CACACA_site5470]”, with 9.07 ± 0.3; and “ATTTATAGAGCTATATGTACATATATATATATTATT [XGTACX_site3704]”, with 8.62 ± 0.4; and “AATATAAATAATGTTAAACACACATACCGATATATA [CACACA_site8869]”, with 8.52 ± 0.43.
Take “AAAAGGTGGAAAAATGCATGCAGGCTATTCTATATA [TGCATGCA_site1034]”: the “gcPBM binding intensity (ln)” value amounted to 9.73 ± 0.16.
Then “TTCCACCAATATATATGTACTTATAATATATATATA [XGTACX_site8700]”, with 9.39 ± 0.2.
The same measure for “AATTACATATAATACTGTACGCTAATAAGAAAAAAA [XGTACX_site7413]”: 8.77 ± 0.3.
Then “ATATAAATAAAGAAATATATATATATATATATATAT [GTGCAC_negctrl_site668]”, with 10.2 ± 0.88; and “AACGCTTATTAGTTGTTGTATATGTGTTCACATATT [CACACA_negctrl_site379]”, with 8.49 ± 0.34.
On to “TTTTCTATTTAATTGGTGCACTGATATATACACATA [GTGCAC_site9533]”, for which the “gcPBM binding intensity (ln)” value is 9.52 ± 0.33.
The same measure for “ATATAACATATTAATAATATATTTATAATATGTTTA [GTGCAC_negctrl_site168]”: 8 ± 0.38; for “AGGTTAAAAATAAATACACACATTTGATGTCTGTAT [CACACA_site6596]”: 8.15 ± 0.3.
“TTATGTTATATATACACACACAAAAGAAAAAAAAAA [CACACA_site2987]”: the “gcPBM binding intensity (ln)” value was 8.43 ± 0.56.
As for “TTTTGAGAATATATGGGTACAAATAAATAAAAATAT [XGTACX_site1933]”, the “gcPBM binding intensity (ln)” value stood at 8.89 ± 0.4.
With AAATAATATTGAAAAGTGCATATTTTTGTTGATATA, the “gcPBM binding intensity (ln)” value was 8.48 ± 0.37.
With “AAATTTAAATAATGTGCGCATCTTAATATATATAAG [GTGCAC_site9890]”, the “gcPBM binding intensity (ln)” value worked out at 8.78 ± 0.38.
Turning to “TCTTATAACAAAAAAAAATAAAAAATAAAACTATAT [GTGCAC_negctrl_site11]”, the “gcPBM binding intensity (ln)” value came to 8.43 ± 0.4.
Take “CATATAAATAGACACACACACACATATAAATAAATA [CACACA_site7156]”: the “gcPBM binding intensity (ln)” value came out at 8.76 ± 0.44.
Then “TTAGCAACTATTACTACACACATTTTTATATAATTT [CACACA_site1372]”, with 8.51 ± 0.46; and “CATATAATATATCAATGTACATATATATTTTATAAA [XGTACX_site5901]”, with 8.39 ± 0.36; and “TATAAATCAATATGTACACACATATACATGTTGAAT [CACACA_site7460]”, with 8.34 ± 0.3.
“TAATAAAAAAAGTGCACACACATAATATATATATAT [CACACA_site3340]”: the “gcPBM binding intensity (ln)” value turned out to be 9.74 ± 0.28.
Then “ATTATATACATATATATTGTATATACTATACATATG [XGTACX_negctrl_site545]”, with 8.44 ± 0.4; and “ATTGTCAAAACACGCACACACATATACATAATAACA [CACACA_site1742]”, with 8.79 ± 0.56.
On to “ATATATACCTATAACACACACATATTTATATTTATA [CACACA_site7257]”, for which the “gcPBM binding intensity (ln)” value is 8.61 ± 0.47.
The same measure for “AAAAAACATACATACACACACATAAATATATATATT [CACACA_site2699]”: 8.56 ± 0.55; for “TCTTATTTAAAAATAGCACACATTATATATATATAT [CACACA_site8916]”: 10 ± 0.15; for “ATATATATATAAAGGAGTACATACATTAAAAAAAAA [XGTACX_site1095]”: 9.505 ± 0.007.
The same measure for “TCCTTGTTTGGTTTTTTTTTTTCTTCTTTTTTTTTT [CACACA_negctrl_site1355]”: 8.62 ± 0.56; for “TTAAATGTTATATATTGTACATATAATATATGTATT [XGTACX_site1492]”: 8.27 ± 0.19; for “TATGAAACGATATATGTGCACATGAGGGAATATAGA [GTGCAC_site9611]”: 9.39 ± 0.3.
Then “ACACATACACATTAGGTGCACATAATTCAATATTAC [GTGCAC_site9862]”, with 9.09 ± 0.15.
For the sequence “GATATATAACTTTTAACACACAAAAAAAAAAAAAAT [CACACA_site7653]”, the “gcPBM binding intensity (ln)” value stood at 8.46 ± 0.53.
AAAGGTTTGCGTTGTGTGCACAAAATAAATATATAA: the “gcPBM binding intensity (ln)” value was 9.09 ± 0.39.
On to “TTATGAATATTGATGTATAAAAAAATATATATGTTA [XGTACX_negctrl_site390]”, for which the “gcPBM binding intensity (ln)” value is 8.29 ± 0.49.
The same measure for “GAAAATTCATAAAAATGTACTTATTATATTATTTAT [XGTACX_site2169]”: 8.14 ± 0.31.
The same measure for “TAAAATTATGTAATAACACACATATACAATACATAT [CACACA_site1236]”: 8.61 ± 0.3; for “ATTCTAAATATGTATATACACACTTTTAATATTCAT [CACACA_site4118]”: 8.71 ± 0.4; for “TTTTTTATTTAAAGTAGTACTTTTTAGAAAACAAAA [XGTACX_site6759]”: 8.07 ± 0.34.
